# The RNAGym collection of RNA variant scans (doi:10.7554/elife.90254)
# The source gives no read counts; variants with many changes may rest on few reads.
# B1: LINE1-mini (parent)
# chain: GGCAGAGCUCAACACAGCGUGGCAAAGUGGCUGUGGCUAGACUGCC
# Variants of: B1
# Assay: self-cleavage, relative activity (ratio to wild type); higher = more cleavage; in vitro, sequencing; the parent is a self-cleaving ribozyme
row,Variant,self-cleavage
1,A6U C18A G35C U38A,0.09
2,A6U C10A A12C G17U U32C G36A C45G,0.01
3,A6U G33A A39G,0.01
4,G7A A12C A24U,0.04
5,A6U U28G G35U,0.02
6,A6U G7A C18U,0.02
7,A6U C10A C37A,0.01
8,G7A A12C G17A U32G,0.04
9,A6U C10A C13G G33A C37A U38C G40C U43C G44A,0.01
10,A6U U20G C31A A41C,0.06
11,A6U U34A C45U,0.4
12,A6U C23A G30A,1.97
13,A6U U28A G29U U38G,0
14,A6U C10G G19U A25G A26G,0.02
15,A6U G21U G22U,0.62
16,A6U U32G G40C,0.07
17,A6U G7C A12G C15U G27C G40U,0.01
18,A6U G36U C42U,0.11
19,A6U C15U A41U,0.1
20,A6U C18A G35U,0.05
21,A6U C13U G17A G22U G36A,0.19
22,A6U U9A G29U C31A,0.03
23,G7A A12U A24G A41C,0.01
24,G7A A11G G17C G21A A39U,0.01

row,Variant,self-cleavage
1,A6U G17C G19A G21C G22C,0.29
2,A6U G17A G40U,0.02
3,G7A A11G A25U G33C,0.02
4,A6U G7U C18G G30C,0.07
5,A6U G29U C42U,0.28
6,A6U C18A U28C C45A,0.06
7,A6U G33U C42G,0.09
8,A6U G7U A24C A39C,1.19
9,G7A A11U G17A G36C A39C,0.01
10,A6U G7U G17U U43C,0.05
11,A6U U9A A11C G30U,0.04
12,A6U G19U G44U,0.24
13,A6U G30A U43A,0.03
14,A6U C8U G17C A26G U38G,0.01
15,A6U C37U U43C,0.07
16,G7A A11G G21A U38G,0.01
17,A6U G30C G35U,0.09
18,A6U G21A U28A G29C,0.72
19,G7A A14C C37A G40C,0.24
20,A6U G27U G35A G44C,0.4
21,A6U U20G C31G,0.05
22,A6U U20G C31A,0.03
23,A6U G7C U9A G22A C37A,0.03
24,A6U C10A A16C,0.01

row,Variant,self-cleavage
1,A6U G7U G35C,0.06
2,A6U C10G G40U G44A,0.02
3,A6U U20A G36C,0.02
4,A6U C8U U32A,0.04
5,A6U C13G A14C,0.19
6,A6U G7C C13A G40A C42A,0.02
7,G7A A11U C18A G19U U34A,0.02
8,A6U C8U G36C C45G C46G,0.14
9,G7A A12G A24G G27C C37U,0.01
10,A6U G19U G36C U43C,0.06
11,A6U C10U U43C,0.07
12,A6U C13G C18U G19C C37U C45G,0.06
13,A6U U28A C37U,0.02
14,A6U C8G G40U A41U,0.01
15,G7A A11U G35A,0.02
16,A6U G27A U28A,0.91
17,G7A A12G G21U A24U,0.1
18,G7A A12C G29C G33C C42U,0.08
19,A6U G7C C15A G21A G30C,0.21
20,A6U G7U G17U,0.22
21,A6U C37G G40A,0.1
22,A6U G29C C37A A39G,0.02
23,A6U C13U G19U G27A G33A,0.07
24,A6U C8G G21A A41U,0.17

row,Variant,self-cleavage
1,A6U C13G U34C,0.11
2,A6U G30C U32G A41C,0.04
3,A6U C18U G22U A24G,0.77
4,A6U U20C G35C G36U C37A,0.09
5,G7A A12U A24U A25U G36A G44C,0.03
6,A6U U9C G17U G35A,0.04
7,A6U G7A C23U G30A,0.23
8,A6U C15A C23G,0.01
9,A6U G19A G35C C42A,0.16
10,A6U C13U G19C C23A,0.24
11,A6U C37U C42G,0.41
12,A6U C23G C46A,0.3
13,A6U G30A U34A G40U A41G,0.04
14,A6U U9C C18U A24U,0.03
15,A6U U9A C37G,0.02
16,A6U G7A G17A C42U,0.02
17,A6U G17A C37U,0.12
18,A6U G22U U28G U34G,0.12
19,A6U G27U C42A,0.18
20,A6U C31U U32C G33U,0.19
21,G7A A14C A39U U43C C46A,0.03
22,A6U C10A A24C G29A,0
23,A6U G33A G40U,0.11
24,A6U G33A G40C,0.05

row,Variant,self-cleavage
1,A6U C8G A41U,0.05
2,A6U C8G A41C,0.32
3,A6U C8A G40C C42U,0.06
4,A6U C42U G44U,0.34
5,A6U G27U G29U U38C,0.41
6,A6U G30C C31U,1.29
7,A6U C13G G29U,0.18
8,A6U C15A U20C A39U,0.01
9,A6U U20A G44U,0.09
10,A6U U9G A12G A41C,0.02
11,A6U C13A G19A G22A A24G U34G,0.05
12,A6U C18A G27A U38A,0.33
13,G7A A11G A12C C42U U43G,0.01
14,A6U C15A G19C U28G G36A,0.13
15,A6U G17C C18U G21C,0.08
16,G7A A12U C31U,0.04
17,A6U C10A A26G G36U,0.01
18,A6U C10U C15A G29U,0.02
19,A6U C8A A14U G21U U32G,0.09
20,A6U G7C A26U,0.7
21,A6U U20A C23U G35C,0.1
22,A6U G7U G22A A25C U28A G29C G44A C46G,0.01
23,G7A A12G C13U A14G,0.1
24,A6U C13A C15U C23G G27C,0.01

row,Variant,self-cleavage
1,A6U G7C G33U,0.48
2,A6U G21U U34G C45A,0.02
3,A6U C8G G17A G35U,0.02
4,A6U C8A C10U G29C,0.03
5,A6U G19A G36U A41U,0.01
6,A6U G17A C23G G27U,0.09
7,A6U U34A G35U C37U U38G A41G,0.03
8,A6U C18G U28A G30U G40C C46A,0.05
9,A6U G22U A26U,0.74
10,A6U U28G U34C C46G,0.03
11,A6U G17U A41C,0.13
12,A6U C23U U34G A39C,0.26
13,A6U C13A G27C G44U,0.12
14,G7A A11C A24U A39G,0.01
15,A6U C13U G17A G35U G40C,0.61
16,G7A A14C A41C C46A,0.03
17,G7A A12U G27U G44C,0.08
18,A6U G21C C31A,0.15
19,A6U C13U A16G G40A,0.17
20,A6U G17U G29A G30A,1.6
21,A6U C23U U32A U34G U38C,0.03
22,A6U G7U G22A C23U,0.05
23,A6U U9G G17U G35A G36U C37G,0.02
24,A6U G22U C46G,0.41

row,Variant,self-cleavage
1,A6U C8A A25U A26U G33U G36C U43G,0
2,A6U U9C G29C,0.03
3,A6U C37A U43A,0.05
4,A6U C10A C18A G40C G44A,0.02
5,A6U G7U C23A A24G C46A,0.07
6,G7A A11C U34G U38A G44A,0.02
7,G7A A11U A12G,0
8,A6U C15A G19A G27C,0.05
9,A6U C8A A14G,0.21
10,A6U C10U U28A C31U,0.11
11,A6U G17A C23A,0.13
12,G7A A12U C15G C23G U28G,0.05
13,A6U C18G A41C,0.07
14,A6U G44A C45A,0.09
15,G7A A12U C15U A26C G33A G44A,0.49
16,G7A A11U U20C A26U,0.02
17,A6U C23G U43G,0.01
18,A6U C18A C37A G44A,0.04
19,A6U G22U C23A U38G A41G,0.02
20,A6U C10A C18U G21C U34C,0.01
21,G7A A12G C15A C23U G29A C46U,0.01
22,A6U G29C G35U C42A C45G,0.01
23,A6U C31A U38A,0.03
